The text below walks through data of the supplement of paper PMC9446081.

Hit rate of the full screen: of about 39,000 compounds, about 220 (0.56%) showed activity. This is one part of the list.
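Further: static incubation at 37 °C against the wild-type strain, values averaged over two biological replicates.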

The assay has as its system Escherichia coli K-12 BW25113. The experiment in a line: relative growth (OD600 normalised to plate interquartile mean) (fraction); higher = less growth inhibition, active = 0.2 or less. Conditions: 50 µM; LB; incubation time: overnight (16-24 h).
`C[C@@H]1CN([C@@H](C)CO)C(=O)c2cccc(N(C)C)c2O[C@@H]1CN(C)S(C)(=O)=O`: the relative growth is inactive: 0.957. With `CC(C)(C)C(=O)C[C@@H](Nc1ccccc1)c1ccc(Cl)cc1` the figure was inactive: 1.03; with `C[C@@H]1CCCCO[C@H](CN(C)C(=O)CCC(F)(F)F)[C@H](C)CN([C@@H](C)CO)C(=O)c2cc(NC(=O)Nc3ccccc3)ccc2O1`, inactive: 1.02.

As for `COCCNC(=O)C[C@@H]1CC[C@@H]2[C@H](COc3ccc(NS(=O)(=O)c4ccc(Cl)cc4)cc3C(=O)N2C)O1`, the relative growth is inactive: 0.982. In the case of `CNC(=O)C[C@@H]1CC[C@@H]2[C@H](COC[C@H](O)CN2C(=O)Nc2ccc3c(c2)OCO3)O1`, the relative growth is inactive: 0.991. Take `C[C@H]1CN([C@@H](C)CO)S(=O)(=O)c2ccc(C#CC3(O)CCCC3)cc2O[C@@H]1CN(C)C(=O)c1ccccc1`: the relative growth was inactive: 0.983.

Consider `O=C(C[C@H]1C[C@H]2c3cc(NC(=O)Nc4ccc(C(F)(F)F)cc4)ccc3O[C@H]2[C@@H](CO)O1)NC1CCCCC1`, for which the relative growth was inactive: 1.01.

In the case of `O=C(C[C@H]1C[C@H]2c3cc(NC(=O)c4ccc5c(c4)OCO5)ccc3O[C@H]2[C@@H](CO)O1)NCc1ccc(Oc2ccccc2)cc1`, the relative growth is inactive: 1.

Take `COc1cc(OC)cc(C(=O)N(Cc2ccco2)Cc2cc3ccc(SC)cc3nc2-c2cccc(OC)c2)c1`: the relative growth is inactive: 1.04. For `O=C(N[C@@H]1CC[C@H](CC(=O)N2CCOCC2)O[C@H]1CO)c1ccc2c(c1)OCO2`, the relative growth was inactive: 0.998.

In the case of `Cc1noc(C)c1NC(=O)Nc1ccc2c(c1)C(=O)N([C@H](C)CO)C[C@H](C)[C@@H](CN(C)C(=O)Nc1cccc3ccccc13)OCCCC[C@H](C)O2`, the relative growth was inactive: 1.03. For `Cc1noc(C)c1S(=O)(=O)Nc1ccc2c(c1)CC(=O)N([C@H](C)CO)C[C@@H](C)[C@H](CN(C)Cc1ccncc1)O2`, the relative growth was inactive: 0.995.

In the case of `C[C@H]1CN([C@@H](C)CO)C(=O)c2cc(C#Cc3ccccc3F)cnc2O[C@@H]1CN(C)C(=O)Cc1cccnc1`, the relative growth is inactive: 0.987. Then `C[C@@H]1CCCCO[C@H](CN(C)Cc2ccccc2)[C@@H](C)CN([C@H](C)CO)C(=O)c2cc(NC(=O)Nc3ccc(C(F)(F)F)cc3)ccc2O1`, with inactive: 1.01; and `C[C@@H]1CN([C@@H](C)CO)C(=O)Cc2cc(NS(=O)(=O)c3cn(C)cn3)ccc2O[C@@H]1CN(C)Cc1ccncc1`, with inactive: 0.996. For `C[C@H](CO)N1C[C@H](C)[C@H](CN(C)C(=O)c2ccccc2)OCCCC[C@H](C)Oc2ccc(NC(=O)Cc3ccccc3)cc2C1=O`, the relative growth was inactive: 0.999.

`Cc1cc(C(=O)Nc2cccc3c2O[C@@H](CN(C)S(=O)(=O)c2cn(C)cn2)[C@@H](C)CN([C@@H](C)CO)C3=O)n(C)n1`: the relative growth was inactive: 1.02.

For `COc1ccc(S(=O)(=O)N(C)C[C@H]2Oc3ccc(NC(=O)Cc4ccccc4)cc3CC(=O)N([C@H](C)CO)C[C@H]2C)cc1`, the relative growth was inactive: 1.03. With `COc1ccc(CN(C)C[C@H]2Oc3ccc(NC(=O)CCCN(C)C)cc3C(=O)N([C@H](C)CO)C[C@H]2C)cc1` the figure was inactive: 1; with `COc1ccc(-c2cc3c(c(CCc4ccccc4)n2)[Si](C(C)C)(C(C)C)O[C@H]3c2ccccc2)cn1`, inactive: 1.01. Then `Cc1ccc2nc(-c3ccncc3)cc(-c3ccccc3)c2c1`, with inactive: 1.01; and `Cc1ccc(S(=O)(=O)Nc2cccc3c2O[C@@H](CN(C)C(=O)Nc2cccc4ccccc24)[C@H](C)CN([C@H](C)CO)C3=O)cc1`, with inactive: 1.04; and `N[C@@H](C(=O)O)[C@@H](O)[C@H](O)[C@H](O)CO`, with inactive: 0.951.

With `CC(C)NC(=O)Nc1cccc2c1O[C@H](CN(C)Cc1ccc3c(c1)OCO3)[C@@H](C)CN([C@@H](C)CO)C2=O`, the relative growth was inactive: 1.01. In the case of `CCN1CCN(CC(=O)Nc2ccc(-c3cccc4c(=O)cc(N5CCOCC5)oc34)c3sc4ccccc4c23)CC1`, the relative growth is inactive: 0.981. `C=CCOC(=O)[C@H]1[C@@H]2C(=O)O[C@@H](c3ccccc3)[C@@H](c3ccccc3)N2[C@@H](c2ccc(OCCOC(=O)[C@H]3C[C@H]4C(=O)N5CCC[C@H]5C(=O)N4[C@H]3c3cccc(OCCO)c3)cc2)[C@]12C(=O)Nc1ccccc12`: the relative growth was inactive: 1.03. For `O=C(NO)c1cccnc1`, the relative growth was inactive: 1.02. For the compound `C[C@H]1CCCCO[C@H](CN(C)C(=O)Cc2ccccc2)[C@@H](C)CN([C@@H](C)CO)C(=O)c2cc(NC(=O)Cc3ccccc3)ccc2O1`, the relative growth was inactive: 0.972. For the compound `C/C(C[P+](c1ccccc1)(c1ccccc1)c1ccccc1)=N\NC(=O)CCCCCCC(=O)Nc1ccccc1O`, the relative growth was inactive: 1.02. On to `C[C@@H]1CN([C@@H](C)CO)C(=O)Cc2cc(NC(=O)CCN3CCOCC3)ccc2O[C@@H]1CN(C)Cc1ccccc1`, for which the relative growth was inactive: 1.02.

Regarding `C[C@H]1CCCCO[C@H](CN(C)S(=O)(=O)c2ccccc2)[C@@H](C)CN([C@@H](C)CO)C(=O)c2cc(NC(=O)Nc3ccc(C(F)(F)F)cc3)ccc2O1`, the relative growth was inactive: 1.02.

As for `CC(C)NC(=O)Nc1ccc2c(c1)C(=O)N([C@H](C)CO)C[C@H](C)[C@@H](CN(C)Cc1ccc(Cl)c(Cl)c1)OCCCC[C@H](C)O2`, the relative growth is inactive: 1.03. In the case of `O=C(C[C@@H]1CC[C@H]2[C@@H](COC[C@@H](O)CN2S(=O)(=O)c2cccc(F)c2)O1)NCCCN1CCOCC1`, the relative growth is inactive: 0.981. Then `C[C@@H]1CN([C@@H](C)CO)C(=O)c2cc(NC(=O)Nc3ccc4c(c3)OCO4)ccc2O[C@H]1CN(C)Cc1ccc(Oc2ccccc2)cc1`, with inactive: 1.01; and `O=C(C1=C[C@@H](c2ccc(C(F)(F)F)cc2)C[C@@H](OCc2ccc(CO)cc2)O1)N1CCN(Cc2ccccc2)CC1`, with inactive: 1.03. With `CCCCC[C@@H](C)N` the figure was inactive: 0.999; with `CC(C)NC(=O)Nc1ccc2c(c1)C(=O)N([C@@H](C)CO)C[C@H](C)[C@@H](CN(C)Cc1ccccc1)OCCCC[C@H](C)O2`, inactive: 1.01. As to `CC1=C(CC(=O)O)c2cc(F)ccc2C1=Cc1ccc(S(C)=O)cc1` (stereo not given), the relative growth was inactive: 1.05.

For the compound `C[C@H]1CCCCO[C@H](CN(C)S(=O)(=O)c2ccccc2)[C@@H](C)CN([C@@H](C)CO)C(=O)c2cc(NC(=O)Nc3cccc4ccccc34)ccc2O1`, the relative growth was inactive: 1.03. In the case of `O=[N+]([O-])c1cccc2c1nnn2[C@H](CO)OCCO`, the relative growth was inactive: 0.98. Then `COc1ccc(CN(C)C[C@H]2Oc3c(NC(=O)c4cnccn4)cccc3C(=O)N([C@H](C)CO)C[C@@H]2C)cc1`, with inactive: 0.998; and `C[C@@H]1CN([C@@H](C)CO)C(=O)c2cccc(NC(=O)C3CC3)c2O[C@@H]1CN(C)S(=O)(=O)c1cn(C)cn1`, with inactive: 1.02. As for `Cc1ccc(S(=O)(=O)N(C)C[C@@H]2OCCCC[C@H](C)Oc3ccc(NC(=O)C4CCCCC4)cc3C(=O)N([C@@H](C)CO)C[C@H]2C)cc1`, the relative growth is inactive: 1.05. As for `Cc1noc(C)c1NC(=O)N(C)C[C@@H]1Oc2ccc(NS(=O)(=O)c3cn(C)cn3)cc2C(=O)N([C@H](C)CO)C[C@H]1C`, the relative growth is inactive: 0.985. `C[C@@H]1CN([C@@H](C)CO)C(=O)c2cc(NC(=O)C3CC3)ccc2O[C@H]1CN(C)Cc1ccc2c(c1)OCO2`: the relative growth was inactive: 1.02. Take `CC(C)(C)S(=O)N1Cc2cc(C(=O)NCc3ccc4c(c3)OCO4)nc(-c3cccc(C#CCC4CCCC4)c3)c2[C@H]1CCO` (stereo not given in full): the relative growth is inactive: 1.04. With `Cc1ccc(S(=O)(=O)N2C[C@@H](O)COC[C@H]3O[C@H](CC(=O)NCc4ccc5c(c4)OCO5)CC[C@@H]32)cc1`, the relative growth is inactive: 1.

Take `C[C@@H]1CN([C@@H](C)CO)C(=O)c2cc(-c3ccc(F)cc3)cnc2O[C@@H]1CN(C)C(=O)Cc1ccccn1`: the relative growth was inactive: 0.977. Then `COc1ccc(S(=O)(=O)N(C)C[C@H]2Oc3ccc(NS(=O)(=O)c4cn(C)cn4)cc3CC(=O)N([C@@H](C)CO)C[C@@H]2C)cc1`, with inactive: 0.998; and `C[C@H]1CN([C@@H](C)CO)C(=O)c2c(c3ccccc3n2C)-c2ccccc2CO[C@H]1CN(C)C(=O)Nc1cccc(C(F)(F)F)c1`, with inactive: 1.03; and `O=C(CCCCCCC(=O)Nc1ccc([C@H]2O[C@@H](CSc3ccccc3)C[C@H](c3ccccc3)O2)cc1)NO`, with inactive: 1.02. With `COc1ccc(S(=O)(=O)Nc2ccc3c(c2)C(=O)N([C@@H](C)CO)C[C@H](C)[C@H](CN(C)Cc2ccc4c(c2)OCO4)OCCCC[C@@H](C)O3)cc1` the figure was inactive: 0.998. As for `FC(F)(F)Oc1ccccc1`, the relative growth is inactive: 0.963. With `Cc1noc(C)c1NC(=O)N(C)C[C@H]1Oc2ccc(NS(=O)(=O)c3c(C)noc3C)cc2CC(=O)N([C@@H](C)CO)C[C@H]1C` the figure was inactive: 0.987.

As for `CNC[C@H]1Oc2ccc(NC(=O)Cn3cnnn3)cc2C(=O)N([C@@H](C)CO)C[C@@H]1C`, the relative growth is inactive: 0.913. In the case of `C[C@H](CO)N1C[C@H](C)[C@H](CN(C)Cc2ccc(C(F)(F)F)cc2)Oc2ccc(NC(=O)Cn3cnnn3)cc2CC1=O`, the relative growth is inactive: 0.95. With `CCCC#Cc1ccc2c(c1)O[C@@H](CN(C)S(=O)(=O)c1cccc(OC)c1)[C@H](C)CN([C@@H](C)CO)S2(=O)=O` the figure was inactive: 1.04; with `CCS(=O)(=O)N1C[C@]2(CN(C2)C(=O)Nc2ccc3c(c2)OCO3)c2c(n(c3cc(ccc23)OC)C)[C@@H]1CO`, inactive: 0.979; with `O=C(C[C@H]1CC[C@@H]2[C@H](COC[C@H](O)CN2C(=O)Nc2ccc(C(F)(F)F)cc2)O1)NCCc1ccncc1`, inactive: 0.863. For the compound `O=C(C[C@@H]1C=C[C@H](NC(=O)CN2CCOCC2)[C@@H](CO)O1)NC1CCC1`, the relative growth is inactive: 0.993.
